33 molecules from ChEMBL document CHEMBL4888484, “Replenishing the malaria drug discovery pipeline: Screening and hit evaluation of the MMV Hit Generation Library 1 (HGL1) against asexual blood stage Plasmodium falciparum ,using a nano luciferase reporter read-out” (2022) can be followed below.

Structures are written as SMILES. Hit rate of the full screen: of about 150,000 compounds, about 540 (0.36%) showed an effect of 50% or more. This is one part of the list.

The % Inhibition is the change of the read-out against control, counted positive when it falls.

In this assay the test system is Plasmodium falciparum. The assay is described as follows: Primary screen in NF54 nanoGlo assay, in single point, at 2uM, 72h; a lower Z score goes with more inhibition. As to conditions: timepoint 72 hour. It is filed as functional, Erythrocyte.
On to `O[C@@H](CNC1CCN(C2CCC2)CC1)c1cc(F)ccc1F`, for which the “% Inhibition” value is given as -11% and the Z score was determined as 1.64.
In the case of `Cc1noc(-c2csc(C(=O)NCCCN3CCCCC3)n2)n1`, the “% Inhibition” value is recorded as 2% and the Z score was -0.37.
In the case of `COc1ccccc1CNC(=O)c1ccc2c(c1)N(C)C(=O)c1ccccc1O2`, the “% Inhibition” value is listed as -4% and the Z score is recorded as 0.55.
Consider `Cc1cc(CN2CCc3ccccc3C2)on1`, for which the “% Inhibition” value is listed as -3% and the Z score was determined as 0.25.
On the same counts, the results for `COC1CCC2OCCN(C(=O)N(C)c3ccc(F)cc3)C2C1` (stereo unspecified) are 1% and -0.16.
Turning to `Cc1cnn(CC(=O)Nc2ncccc2CNC(=O)OC(C)(C)C)c1`, the “% Inhibition” value amounted to 17% and the Z score is on record as -2.14.
In the case of `O=c1n(CCCc2nc(-c3ccccc3)no2)nc2ccccn12`, the “% Inhibition” value is -2% and the Z score was determined as 0.44.
On the same counts, the results for `CNC(=O)Cc1noc(-c2cnn(-c3ccccc3)n2)n1` are 16% and -1.85.
In the case of `O=C(CCNC(=O)c1ccc(F)cc1)NCCN1CCCC1`, the “% Inhibition” value is 3% and the Z score is recorded as -0.39.
For `O=S(=O)(c1ccc(F)cc1)N1CC(F)(F)C[C@H]1CN1CCc2ccccc2C1` the same measures were -15% and 2.64.
For `CCOC1CC(NC(=O)C2(C#N)CCCC2)C1(C)C` (stereo unspecified) the same measures were -5% and 0.69.
For `CCN1CCCN(C(=O)N[C@H]2CCC[C@H]2F)CC1=O` the same measures were -4% and 0.77.
Regarding `COc1cc(CN[C@H]2CCc3c(cccc3OC)C2)ccn1`, the “% Inhibition” value is -1% and the Z score was 0.12.
On the same counts, the results for `CNC(=O)C(CC(C)C)NC(=O)[C@H](O)c1ccccc1` (stereo partly specified) are -3% and 0.61.
Turning to `CCC(C)(C)c1ccc(OCCN(C)C)cc1`, the “% Inhibition” value stood at 1% and the Z score is given as -0.18.
On to `CCCc1cc(CNC2CCN(C(=O)c3cccs3)CC2)on1`, for which the “% Inhibition” value is recorded as -6% and the Z score amounted to 1.06.
For `COCCn1cncc1CNc1cc([C@H]2CCOC2)ncn1` the same measures were -4% and 0.82.
With `CCc1noc(Cc2c(C)nn(-c3ccccc3)c2C)n1`, the “% Inhibition” value is -5% and the Z score was determined as 0.89.
On to `CNc1snc(C)c1C(=O)OCC(=O)N1CCCCCCC1`, for which the “% Inhibition” value was -8% and the Z score is reported as 1.1.
On the same counts, the results for `CN(C)C(=O)c1ccc(F)cc1Br` are -2% and 0.29.
On the same counts, the results for `CCC(NC[C@H](O)CC)c1c(C)noc1C` (stereo partly specified) are -11% and 1.37.
In the case of `CCN(CC)c1nc2c(c(O)nc(=O)n2C)n1CCC(C)C`, the “% Inhibition” value was -7% and the Z score is listed as 0.89.
On the same counts, the results for `O=C(NCCN1Cc2ccccc2O[C@H](c2ccccc2)C1)c1cnsn1` are 17% and -2.18.
As to `COc1ccc([C@H]2[C@H](C(=O)NCC3CC3)CCC(=O)N2C)cc1`, the “% Inhibition” value stood at 31% and the Z score was -3.53.
On the same counts, the results for `COc1ccc(CN(C(=O)OC(C)(C)C)C2CCC(C(=O)N3CCO[C@@H](COc4ccccc4)C3)CC2)cc1C` (stereo partly specified) are -2% and 0.25.
As for `CC[C@@H](C(=O)Nc1c(C)nc(N2CCCC2)nc1C)c1ccccc1`, the “% Inhibition” value was 3% and the Z score was -0.45.
On the same counts, the results for `Cc1cccc(-c2nnc3c4ccccc4nc(N4CCN(C(=O)c5ccc(F)cc5F)CC4)n23)c1` are -11% and 1.38.
On the same counts, the results for `COc1ccccc1[C@@]1(CC(=O)N(C)Cc2ccccc2)CC(=O)N(C2CCCC2)C1=O` are -1% and 0.3.
On the same counts, the results for `COc1ccc([C@@H](C)CN2CCC(n3cccn3)CC2)cc1` are -12% and 1.35.
On to `CC[C@H](N)C(=O)N(C)Cc1ccccc1F`, for which the “% Inhibition” value is given as -34% and the Z score is on record as 3.98.
As for `CN(CC1CCCCC1)C(=O)CN1CCOC(C)(C)C1`, the “% Inhibition” value was 8% and the Z score is recorded as -1.3.
`COc1ccc([C@@H](O)CN2CCN(c3ncccn3)CC2)cc1`: the “% Inhibition” value is given as -19% and the Z score came to 1.92.
For `O=C(COc1ccccc1)NC(c1ccc(F)cc1F)[C@H]1C[C@@H](O)C1` (stereo partly specified) the same measures were 1% and -0.26.
